# Assay results published in PubChem BioAssay AID686971 (National Center for Advancing Translational Sciences (NCATS), 2013).
# Out of some 360,000 compounds screened, about 7,500 (2.1%) were called active. The inconclusive results got no clear call from the source; some entries with a clear call stand among them for comparison. The call rests on the fitted dose curve; in most records, active means well fitted cell-killing curve with a large enough effect; inconclusive means small, poorly fitted or top-dose-only effect, or effect the other way, or another doubt; inactive means no such curve, though single readings can be large or run the other way. Potencies of inconclusive entries are left out as doubtful fits.
# Assay: qHTS for induction of synthetic lethality in tumor cells producing 2HG: qHTS for the HT-1080-IDH1KD cell line;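 on activity, negative = toxicity: 0% = DMSO wells and -100% = cell-free medium wells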
# Conditions: HT-1080 IDH1 knockdown viability, ATP luminescence, 48 h; activity, negative = toxicity: at 46.1 µM (top of the series) unless noted
# In short: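 Assay cells: HT-1080 with IDH1 knockdown, 750 per well, RPMI/5% FBS. Exposure: 48 h at 37 °C following 2 h pre-incubation. Read: CellTiter-Glo luminescence; fitted concentration-response, curve class assigned.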
# Potency means the concentration at half of the fitted maximal effect; tags describe the fitted curve by direction and shape.
Structure (SMILES),Potency,"activity, negative = toxicity"
O=C(c1ccc2c3c(cccc13)CC2)C1CCCN(Cc2ncc[nH]2)C1 (centres undefined),"inconclusive [cytotoxic, single point]",
C=CCn1c(O)c(C(CC)=NCc2cc(OC)cc(OC)c2)c(=O)[nH]c1=O,active: 23.1 µM,
CC12CCC3C(CC=C4CC(O)CCC43C)C1C/C(=C\c1cccc(F)c1)C2=O (centres undefined),"inconclusive [cytotoxic, single point]",
O=C(COc1ccc(Cl)cc1Cl)N1CCN(C/C=C/c2ccccc2)CC1,"inconclusive [cytotoxic, single point]",
CN(C)P(=S)(Nc1ccccc1)C(Cl)(Cl)Cl (centres undefined),"inconclusive [cytotoxic, single point]",
CC1OC(OC2CC(O)C3(CO)C4C(O)CC5(C)C(C6=CC(=O)OC6)CCC5(O)C4CCC3(O)C2)C(O)C(O)C1O (centres undefined),active: 0.206 µM,
O=C(CCCCCn1c(=S)[nH]c2ccccc2c1=O)N1CCC2(CC1)OCCO2,,inactive: 3.95%
CC(C)OP(=O)(OC(C)C)C(Nc1ccc([N+](=O)[O-])cc1)c1cccc([N+](=O)[O-])c1 (centres undefined),"inconclusive [cytotoxic, single point]",
CNCCc1ccc(O)c(O)c1,"inconclusive [cytotoxic, partial curve]",
CCC1CN1P1(=O)OCC(C)([N+](=O)[O-])CO1 (centres undefined),,inactive: -1.92%
COc1cc(/C=C(/C)[N+](=O)[O-])ccc1OCc1ccccc1Cl,active: 5.8 µM,
COc1ccc(N=C(C)c2c(O)[nH]c(=O)[nH]c2=O)cc1,"inconclusive [cytotoxic, single point]",
COc1cc(CN=C(C)c2c(O)n(C3CCCCC3)c(=O)[nH]c2=O)cc(OC)c1,"inconclusive [cytotoxic, single point]",
COC[C@H]1OC(=O)c2coc3c2[C@@]1(C)C1=C(C3=O)[C@@H]2CCC(=O)[C@@]2(C)C[C@H]1OC(C)=O,active: 23.1 µM,
COc1ccc(C(c2nnnn2C2CCCC2)N2CCC3(CC2)C(=O)NCN3c2ccccc2)cc1 (centres undefined),"inconclusive [cytotoxic, single point]",
OC(c1cccc(Cl)c1)(c1cccc(Cl)c1)C1CN2CCC1CC2 (centres undefined),active: 18.4 µM,
CC(C)CCn1c(=O)c(C(=O)Nc2ccccc2S(N)(=O)=O)c(O)c2ccccc21,"inconclusive [cytotoxic, single point]",
COc1cc2c(cc1O)[C@@H]1Cc3ccc(OC)c(O)c3CN1CC2,active: 2.59 µM,
CCOc1ccc(-c2cc(C)[n+](CCN3CCOCC3)c(-c3ccc(OCC)cc3)c2)cc1,"inconclusive [cytotoxic, partial curve]",
Cn1cnc(CCN)c1,,inactive: 2.3%
Cn1cccc1/C=C1/C(=O)NC(=O)N(Cc2ccccc2)C1=O,"inconclusive [cytotoxic, partial curve]",
COc1cc(C2c3cc4c(cc3CC3COC(=O)C32)OCO4)cc(OC)c1OC (centres undefined),active: 0.231 µM,

Structure (SMILES),Potency,"activity, negative = toxicity"
CCC(C)C(=O)N[C@@H](c1ccccc1)[C@@H](O)C(=O)O[C@H]1C[C@@]2(O)[C@@H](OC(=O)c3ccccc3)C3[C@](C)(C(=O)[C@H](OC(C)=O)C(=C1C)C2(C)C)[C@@H](O)C[C@H]1OC[C@@]31OC(C)=O (some centres undefined),"inconclusive [cytotoxic, full curve]",
C=C[C@H]1CN2CC[C@H]1C[C@@H]2[C@@H](O)c1ccnc2ccccc12,,inactive: 6.29%
C=Cn1ccnc1P(=S)(c1ccc(N(C)C)cc1)c1nccn1C=C,"inconclusive [cytotoxic, single point]",
COc1cccc2c1C(=O)c1c(O)c3c(c(O)c1C2=O)CC(O)(C(C)=NO)CC3OC1CC(N)C(O)C(C)O1 (centres undefined),active: 10.3 µM,
Clc1ccc2c(c1)C(OC1CN3CCC1CC3)c1ccccc1CS2 (centres undefined),"inconclusive [cytotoxic, single point]",
O=[N+]([O-])/C=C/c1c(Cl)cccc1Cl,"inconclusive [cytotoxic, single point]",
CC/C(=N\Nc1ccccc1)c1c(O)n(-c2ccc(OC)cc2)c(=O)[nH]c1=O,"inconclusive [cytotoxic, partial curve]",
Cc1cc(C(=O)Nc2sc3c(c2C#N)CCC3)no1,"inconclusive [cytotoxic, partial curve]",
Cc1cccc(C)c1-n1nnnc1C(c1cccs1)N1CCC(n2c(=O)[nH]c3ccccc32)CC1 (centres undefined),"inconclusive [cytotoxic, partial curve, poor fit]",
CC12CC[C@H]3[C@@H](CCC4(O)C[C@H](O)CCC34/C=N/NC(=O)Cc3ccccc3)C1(O)CCC2C1=CC(=O)OC1 (some centres undefined),"inconclusive [cytotoxic, partial curve]",
CSCCC(c1nnnn1-c1ccc2c(c1)OCCO2)N1CCC(n2c(=O)[nH]c3ccccc32)CC1 (centres undefined),"inconclusive [cytotoxic, single point]",
Cc1cccn2c(=O)c3c(nc12)N1CCCCC1C1(C3)C(=O)N(C)C(=O)N(C)C1=O (centres undefined),,inactive: 8.23%
C/C1=C\[C@@H](C)C/C=C/[C@H]2[C@@H]3O[C@]3(C)[C@@H](C)[C@H]3[C@H](Cc4c[nH]c5ccccc45)NC(=O)[C@]32C(=O)/C=C/C(=O)[C@@H]1O,"inconclusive [cytotoxic, partial curve]",
O=C(COc1ccc2ccccc2c1)N1CCN(Cc2c[nH]c3ccccc23)CC1,"inconclusive [cytotoxic, single point]",
CCCCCCN1CCN(c2ccccc2Cl)CC1,,inactive: 0.454%
Cc1ccccc1CCNCc1ccc(Br)cc1,"inconclusive [cytotoxic, single point]",
COC(=O)C1=C(c2ccccc2OCc2ccccc2)C[C@@H]2CC[C@H]1N2C(=O)NCc1ccc(OC)cc1,"inconclusive [cytotoxic, single point]",
CC(C)c1ccc(N2C(=O)NC(=O)/C(=C\C=C\c3ccco3)C2=O)cc1,active: 5.8 µM,
CC(=O)N1N=C(c2c(O)n(C)c(=O)n(C)c2=O)CC1c1ccccc1 (centres undefined),"inconclusive [cytotoxic, single point]",
Cc1ccccc1C(O)(Cc1ccccc1)C1CN2CCC1CC2 (centres undefined),"inconclusive [cytotoxic, single point]",
Cc1ccc(Cn2nc(C(=O)Nc3ccc(Br)cc3)cc2C)cc1,"inconclusive [cytotoxic, full curve, poor fit]",
CN1CCN(C(=S)SCC(=O)Nc2ccc(Cl)cc2C(=O)c2ccccc2)CC1,"inconclusive [cytotoxic, single point]",

Structure (SMILES),Potency,"activity, negative = toxicity"
C=C1C(=O)[C@@]23C[C@H]4[C@@H]5[C@@]6(C)CCC[C@@]57[C@@H]2[C@@H](O)[C@@H]1C[C@H]3[C@H]7N4C6,"inconclusive [cytotoxic, single point]",
O=C(NC(=O)N1CCC2(CC1)OCCO2)c1ccc(Cl)cc1,,inactive: 19.7%
COC(=O)C1=C(c2ccc(F)cc2OCc2ccccc2)C[C@@H]2CC[C@H]1N2C(=O)NCc1cccc(OC)c1,,inactive: -16.8%
CCCCNC(=O)c1c(N)n(CCCOC)c2nc3ccccc3nc12,"inconclusive [cytotoxic, single point]",
Cc1cc(N2CCN(C(=O)c3ccco3)CC2)n2nc(-c3cccc(Cl)c3)cc2n1,"inconclusive [cytotoxic, single point]",
N#Cc1ccc2nc(-c3ccc(CN4CCC(n5c(=O)[nH]c6ccccc65)CC4)cc3)c(-c3ccccc3)nc2c1,"inconclusive [cytotoxic, partial curve]",
CN1[C@H]2CC[C@@H]1C(C(=O)N1CCOCC1)=C(O)C2,,inactive: 15.7%
O=C1CN=C(c2cccc(Br)c2)c2cc(Br)ccc2N1,"inconclusive [cytotoxic, single point]",
Cc1ccc(-n2c(O)c(/C=C3/C(c4ccccc4)=Nc4ccccc43)c(=O)[nH]c2=O)cc1,"inconclusive [cytotoxic, full curve]",
CCCCCn1c(=O)c(C(=O)Nc2ncccc2C)c(O)c2ccccc21,active: 20.6 µM,
COC(=O)C1=C(c2ccc(S(C)(=O)=O)cc2)C[C@@H]2CC[C@H]1N2C(=O)NCCNC(C)=O,,inactive: 1.63%
COC(=O)C(O)(c1ccc(NC(=O)c2cccs2)cc1)C(F)(F)F (centres undefined),,inactive: 15.2%
CC(=O)OC1CC(OC2C(O)CC(OC3C(O)CC(OC4CCC5(C)C(CCC6C5CCC5(C)C(C7=CC(=O)OC7)CCC65O)C4)OC3C)OC2C)OC(C)C1OC1OC(CO)C(O)C(O)C1O (centres undefined),active: 0.0517 µM,
Nc1ccc(Cc2ccc(N)c(Cl)c2)cc1Cl,"inconclusive [cytotoxic, single point]",
Cc1cc(OCC(=O)N2C[C@H]3C[C@@H](C2)c2cccc(=O)n2C3)c2c(C)c(C)c(=O)oc2c1,,inactive: -1.48%
CC(N)Cc1c[nH]c2ccc(OCc3cccs3)cc12 (centres undefined),"inconclusive [cytotoxic, single point]",
COc1cccc(C(c2nnnn2C2CCCCC2)N2CCC3(CC2)C(=O)NCN3c2ccccc2)c1OC (centres undefined),"inconclusive [cytotoxic, single point]",
NC1C2CN3CCN(C2)CC1(c1ccccc1)C3 (centres undefined),,inactive: 19%
O=C(c1cc2c(s1)-c1ccccc1OC2)N1CCC2(CC1)OCCO2,"inconclusive [cytotoxic, single point]",
CC(=NCCCN1CCCCC1)c1c(O)n(Cc2ccccc2)c(=O)[nH]c1=O,,inactive: -7.35%
